# Results reported in PubChem BioAssay AID652104 (National Center for Advancing Translational Sciences (NCATS), 2013).
# In all, about 410,000 compounds went through this assay and about 7,200 (1.8%) were called active. Inconclusive means that the source gave no clear call. Such entries were picked first, then a sample of the others. Calls come from the whole dose curve; as a rule, active = well fitted activation curve with a large enough effect; inconclusive = small, poorly fitted or top-dose-only effect, or another doubt; inactive = no such curve, though single readings can be large or run the other way. No potency is given beside an inconclusive call; the fits are too rough.
# Test: qHTS of TDP-43 Inhibitors; note: nearly all actives have a fitted effect of over 50% in size; for growth rescue (activation): % of control where 0% means no effect
# Settings: TDP-43 expressing yeast growth rescue, BacTiter-Glo, 24 h; growth rescue (activation): at 46.1 µM (top of the series) unless noted
# Outline: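 Cell-based yeast growth screen: TDP-43 expression induced in galactose, inoculum OD600=0.02 after raffinose pregrowth to mid-log. Read-out BacTiter-Glo luminescence at 24 hr, 30 deg C; inhibition of toxicity seen as signal increase.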
# Potency is the fitted concentration of half-maximal effect; tags give direction and shape of the fitted curve.
Compound,Potency,growth rescue (activation)
Cc1cccc(OCC(=O)N2CCC(c3ccccc3)C2)c1 (configuration not stated),"inconclusive [activator, single point]",–
COc1ccc(Cl)cc1NC(=O)c1sc(-n2nc(C)c(Cc3ccccc3)c2C)nc1C,"inconclusive [activator, partial curve]",–
O=C(NC1CC1)C1=C[C@@H](c2csc3ccccc23)C[C@@H](OCc2ccc(CO)cc2)O1,active: 14.1 µM,–
COc1ccc(C(=O)NCCOc2cccc(OC)c2)cc1,"inconclusive [activator, partial curve]",–
COc1ccc(-c2nnn(-c3ccc(Cl)cc3Cl)c2N)cc1,"inconclusive [activator, partial curve]",–
O=S(=O)(Nc1ccccc1Br)c1cccc2cccnc12,–,inactive: 15.6%
Cc1cccc2sc(NNC(=O)c3ccc4c(c3)OCCO4)nc12,active: 35.5 µM,–
c1ccc(Sc2nc(N3CCCCC3)nc(N3CCCCC3)n2)nc1,active: 15.8 µM,–
COc1ccc(-c2[nH]ncc2/C=N/NC(=O)c2cc(Br)ccc2O)c(OC)c1,"inconclusive [activator, partial curve]",–
C[C@@]12CCC3[C@@](CCC4[C@@]3(C)CCC[C@@]4(C)C(=O)N3CCOCC3)(CC1=O)C2 (some centres not stated),"inconclusive [activator, single point]",–
COC(=O)c1cc(NC(=O)CN(c2cccc(OC)c2)S(=O)(=O)c2ccccc2)ccc1Cl,"inconclusive [activator, partial curve]",–
Cc1cc(C)c(C#N)c(Sc2nc(C)c([N+](=O)[O-])c(C)c2C#N)n1,active: 20 µM,–
CCOC(=O)C1CCN(C(=O)c2cc3c(ccc4ccccc43)o2)CC1,"inconclusive [activator, partial curve]",–
Cc1cc2ncn(-c3ncnc4sc(C)c(C)c34)c2cc1C,"inconclusive [activator, single point]",–
O=C(O)CCc1ccc(-c2cccs2)o1,"inconclusive [activator, single point]",–
COC(=O)c1sccc1NC(=S)Nc1ccc(OC)cc1,"inconclusive [activator, partial curve]",–
COCCCNC(=O)CSC1=Nc2ccccc2C2=NC(CCC(=O)NCc3ccccc3OC)C(=O)N12 (configuration not stated),"inconclusive [activator, single point]",–
Cc1nnc(SCc2ccccc2)c2cc3sccc3n12,"inconclusive [activator, single point]",–
Cc1ccc(SCCN2CCC(C)CCC2=O)cc1 (configuration not stated),"inconclusive [activator, partial curve]",–
Fc1cccc(NC(=S)NNc2c3ccccc3nc3ccccc23)c1,"inconclusive [activator, single point]",–
C=CCN1C(=O)C(C)(C)N(C(=O)c2cccc([N+](=O)[O-])c2)c2ccccc21,"inconclusive [activator, single point]",–

Compound,Potency,growth rescue (activation)
CC(C)(C)NC(=O)C[C@H]1C[C@H](C(=O)N2CCCCC2)[C@@]2(C)c3[nH]c4cc(-c5ccco5)ccc4c3CCN2C1=O,"inconclusive [activator, single point]",–
Nc1nc2ccc(Oc3ccccc3)cc2s1,active: 11.2 µM,–
c1ccc(CN(Cc2ccccc2)c2c3c(nc4ncnn24)CCC3)cc1,"inconclusive [activator, partial curve]",–
Cc1cnn(C(=S)NCc2ccco2)c1,"inconclusive [activator, partial curve]",–
Cc1ccc(-n2c(N)c(C(=O)N3CCOCC3)sc2=S)c(C)c1,"inconclusive [activator, partial curve]",–
Cc1cc(C)cc(OC(C)C(=O)Nc2nonc2-c2ccc(Br)cc2)c1 (configuration not stated),"inconclusive [activator, partial curve]",–
COC(=O)C1=C(C)NC(=O)NC1c1ccc([N+](=O)[O-])o1 (configuration not stated),"inconclusive [activator, partial curve]",–
Cc1c(C(=O)c2ccc(Cl)c([N+](=O)[O-])c2)c2ccccn2c1CCC#N,"inconclusive [activator, partial curve, poor fit]",–
CCOC(=O)c1cnn(-c2ccc(C)cc2)c1N,"inconclusive [activator, partial curve]",–
CCCn1c(SCc2ccc(Cl)cc2)nc2c1c(=O)[nH]c(=O)n2C,"inconclusive [activator, partial curve, poor fit]",–
CC(C)(C)NC(=O)C(=O)NNC(=O)COc1ccc(Br)cc1,–,inactive: -1.9%
Cc1cccc(OCCn2c(=O)n(C)c3ccccc32)c1,"inconclusive [activator, single point]",–
O=C(NCCc1c[nH]c2ccccc12)c1cc2sccc2n1Cc1ccccc1,"inconclusive [activator, partial curve]",–
CCCCNC(=O)C1C(c2ccccc2)=Nc2ccccc2N1C(=O)c1ccc2c(c1)OCO2 (configuration not stated),"inconclusive [activator, single point]",–
CCN(c1cccc(C)c1)S(=O)(=O)c1nnc(NC(=O)C2CCCCC2)s1,–,inactive: 7.61%
CCOc1cc(CO)cc(Br)c1OCC(=O)Nc1ccccc1C,"inconclusive [activator, single point]",–
Cc1ccc(-c2nc(C)c(CCNC(=O)c3ccco3)s2)cc1,"inconclusive [activator, single point]",–
COc1ccc(-c2nc3sc(CCNC(=O)c4cc(OC)c(OC)c(OC)c4)c(C)n3n2)cc1,–,inactive: 18.6%
O=C(NCC(F)(F)F)c1cc2c(c(-c3cccc(-c4ccccc4F)c3)n1)[C@@H](CCO)N(C(=O)CC1CC1)C2,"inconclusive [activator, single point]",–
COc1ccc([C@H]2CC(=O)C=C(c3cccc(Br)c3)C2)cc1,active: 22.4 µM,–
COc1ccc(NC(=O)COc2ccccc2)cc1Cl,active: 11.2 µM,–
